# Among all 140,000 compounds or so, about 240 (0.17%) were called active. The inconclusive results got no clear call from the source; some entries with a clear call stand among them for comparison. Calls come from the whole dose curve; as a rule, active = well fitted inhibition curve with a large enough effect; inconclusive = small, poorly fitted or top-dose-only effect; inactive = no such curve, though single readings can be large or run the other way. Potencies beside an inconclusive call are fits to weak or partial responses and may not hold up.
# Experiment: Primary qHTS assay for inhibitors of alpha-synuclein gene (SNCA) expression; note: nearly all actives have a fitted effect of over 45% in size;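 for activity change, negative = inhibition: plate controls were DMSO cells for no effect and cell-free wells for full effect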
# Conditions: HEK-293 SNCA-luciferase knock-in, luminescence, 24 h; activity change, negative = inhibition: at 57.2 µM (top of the series) unless noted
# Potency is the fitted concentration of half-maximal effect; tags give direction and shape of the fitted curve.
Structure (SMILES),"activity change, negative = inhibition",Potency
CCCc1cc(NCc2cn3c(n2)SCC3)n2nccc2n1,inactive: 1.8%,–
CCCN1C(=O)Cc2cc(C(=O)NCc3ccc(F)cc3F)ccc21,–,"inconclusive: 7.94 µM [inhibitor, full curve, poor fit]"
O=C(Nc1cccc2ccccc12)O[C@@H]1CO[C@H]2[C@@H]1OC[C@@H]2NCC1CCCCC1,–,"inconclusive: 8.91 µM [inhibitor, partial curve]"
Cc1ccc([S+](=O)([O-])N2CCN(C(=O)c3cccc(-c4ccccn4)c3)CC2)cc1,–,"inconclusive: 11.2 µM [inhibitor, single point]"
CC(=O)N1CCC(N2C[C@@H]3C[C@H]2C(=O)N(Cc2ccc(OC(F)(F)F)cc2)c2ccccc2O3)CC1,inactive: 11.5%,–
Cc1cccc(CNC(=O)c2noc(-c3ccc4c(c3)OCO4)n2)c1,inactive: 75.5%,–
O=C1[C@H]2CN(Cc3ccncc3)C[C@H]2C(=O)N1Cc1ccc2c(c1)OCO2,–,"inconclusive: 39.8 µM [inhibitor, single point]"
O=C(CCc1ccnc(N2CCCC2)c1)N1CCN(c2cccc(Cl)c2)CC1,–,"inconclusive: 39.8 µM [inhibitor, single point]"
CNC(=O)Nc1ccc(C2(C(=O)N3CCN(c4cccc(Cl)c4)CC3)CCC2)cc1,–,"inconclusive: 39.8 µM [inhibitor, single point]"
CCCCOc1ccc(-c2nc(C3CC(=O)N(C4CCCCC4)C3)no2)cc1 (stereo not drawn),–,"inconclusive: 14.1 µM [inhibitor, partial curve]"
Cc1ccc(C(=O)N2CCc3nc(C(C)C)nc(-c4ccc(Cl)cc4)c3C2)cc1,inactive: -7.66%,–
Cc1ccc(C(=O)Nc2cccc(O)c2)cc1S(=O)(=O)N1CCCCCC1,–,"inconclusive: 3.55 µM [inhibitor, partial curve, poor fit]"
CC(C)c1noc(-c2cn(C3CCN(C(=O)Cc4ccc(F)cc4)CC3)nn2)n1,–,"inconclusive: 8.91 µM [inhibitor, single point]"
CCOc1nccnc1NC1CCN(C(=O)Cc2cccs2)CC1,inactive: 4.31%,–
CCCN1CCC2(CCN([S+](=O)([O-])c3cccs3)CC2)Oc2ccccc21,–,"inconclusive: 39.8 µM [inhibitor, single point]"
O=C(O)C[C@@H]1CCN(C(=O)C2CCCC2)C[C@@H]1CCN1CCN(c2ccccn2)CC1,–,"inconclusive: 28.2 µM [inhibitor, partial curve]"
Cc1nc(-c2ccc(Cl)cc2)sc1CCNC(=O)Cc1ccc(F)cc1,–,"inconclusive: 39.8 µM [inhibitor, single point]"
COc1ccc(C(=O)N2CCN(c3nccc(Nc4ccccc4F)n3)CC2)cc1,inactive: -8.05%,–

# — PubChem BioAssay AID1671194 (National Center for Advancing Translational Sciences (NCATS), 2021)
